Among all 16,000 compounds or so, about 120 (0.75%) were called active. Roughly 4% stayed inconclusive and do not appear here. Calls follow the shape of the dose curve; as a rule, active = well fitted inhibition curve with a large enough effect; inconclusive = small, poorly fitted or top-dose-only effect; inactive = no such curve, though single readings can be large or run the other way. The list shows a part of the results. Where a SMILES comes first, the peptide text is derived from it. [ ]: non-standard residue; d: D form.
target: Rap guanine nucleotide exchange factor 3 (Homo sapiens) (UniProt O95398); assay: Validation qHTS for antagonist of cAMP-regulated guanine nucleotide exchange factor 3 (EPAC1); settings: EPAC1 Rap1B-BODIPY-GDP exchange, fluorescence; series mostly up to 150 µM; activity change, negative = inhibition: at the top concentration;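 also: plate controls were DMSO for no effect and ATA control for full effect; nearly all actives have a fitted effect of over 75% in size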
Chain of UniProt O95398 (O95398 whole entry, looked up): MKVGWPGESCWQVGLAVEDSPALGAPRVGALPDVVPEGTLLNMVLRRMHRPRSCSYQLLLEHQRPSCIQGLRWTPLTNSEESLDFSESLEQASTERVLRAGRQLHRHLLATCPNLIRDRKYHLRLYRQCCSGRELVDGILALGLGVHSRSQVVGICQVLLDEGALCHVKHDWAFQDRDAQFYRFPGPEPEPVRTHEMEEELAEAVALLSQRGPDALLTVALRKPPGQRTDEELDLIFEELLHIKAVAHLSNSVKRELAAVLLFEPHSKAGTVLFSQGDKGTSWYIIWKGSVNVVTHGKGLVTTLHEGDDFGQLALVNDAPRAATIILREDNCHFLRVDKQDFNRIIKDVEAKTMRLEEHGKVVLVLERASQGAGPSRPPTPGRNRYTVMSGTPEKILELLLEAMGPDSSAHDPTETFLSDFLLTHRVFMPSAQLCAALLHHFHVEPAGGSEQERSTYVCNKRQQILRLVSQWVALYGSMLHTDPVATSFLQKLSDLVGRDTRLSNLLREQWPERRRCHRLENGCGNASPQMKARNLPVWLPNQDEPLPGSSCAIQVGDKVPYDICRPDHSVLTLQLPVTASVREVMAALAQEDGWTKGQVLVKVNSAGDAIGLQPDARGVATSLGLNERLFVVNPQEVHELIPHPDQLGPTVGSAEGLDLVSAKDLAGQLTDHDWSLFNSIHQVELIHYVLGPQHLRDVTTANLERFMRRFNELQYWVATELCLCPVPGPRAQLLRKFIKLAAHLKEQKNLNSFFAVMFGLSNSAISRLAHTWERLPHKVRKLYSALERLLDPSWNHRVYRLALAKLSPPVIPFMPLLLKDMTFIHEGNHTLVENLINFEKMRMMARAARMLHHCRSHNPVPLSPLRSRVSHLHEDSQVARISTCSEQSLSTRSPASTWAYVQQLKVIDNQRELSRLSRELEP
Method in brief: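 Nucleotide exchange followed as fluorescence loss when BODIPY-GDP leaves Rap1B (480 nm excitation, 540 nm emission), read at 5 min intervals over 30 min. Reaction: 100 nM EPAC1, 250 nM RAP1B-BODIPY-GDP, 50 uM GDP; ATA and DMSO define normalization.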

Activity change, negative = inhibition, inactive:
C[C@@H](O)[C@H]1C(=O)N2C(C(=O)O)=C(S[C@@H]3CN[C@H](C(=O)N(C)C)C3)[C@H](C)[C@H]12 9.81%, CC(=O)NCC(=O)N[C@H](CCC(=O)O)C(=O)O (Ac-Gly-[dE]-OH) 10.5%, COc1cccc(Cn2c(=O)c(-c3cc(F)cc(F)c3)nc3cnc(N4CCN(C)CC4)nc32)c1 16.7%, COC(=O)C1CCN(Cc2ccc3c(c2)CN(C(=O)c2cc4cc(F)ccc4[nH]2)CCO3)CC1 1.77%, NC(N)=NCCC[C@H](NC(=O)[C@@H](N)Cc1ccc(O)cc1)C(=O)O 22.3% [at 15.3 µM], OC/C=C/c1ccc(O)c(O)c1 11.6%, O=c1cc(-c2cccc(O)c2)oc2ccc(O)cc12 -18.3%, O=C(C[n+]1c(Cl)cc(Cl)c2ccccc21)c1ccccc1 21.5%, CC(=O)OC1CC2C(C)(C)C(=O)[C@@H]3OC3[C@@]2(C)C2CC[C@]3(C)C(=CC(=O)OC3c3ccoc3)[C@]12C (some centres undefined) 12%, CCCOC(=O)c1ccccc1O 27.3%, COC(=O)CCC(C)C1CCC2C3C(C[C@H](O)C12C)C1(C)CC[C@@H](O)CC1C[C@H]3O (some centres undefined) -6.45%, COc1cccc(Nc2ncc3ncc(=O)n(CCc4ccccc4)c3n2)c1 9.37%, FC(F)(F)c1ccccc1-c1nccc(NCCN2CCOCC2)n1 4.91%, COc1ccc2[nH]cc(CCNc3nc(-c4ccc(C(=O)N(C)C)cc4)nc4ccccc34)c2c1 -9.21%, O=C(NCCc1ccccn1)C1CC12CCN(C(=O)c1ccc(F)cc1Cl)CC2 (centres undefined) 8.03%, C[C@@H]1O[C@@H](OC[C@H]2O[C@@H](Oc3c(-c4ccc(OCCO)c(OCCO)c4)oc4cc(OCCO)cc(O)c4c3=O)[C@H](O)[C@@H](O)[C@@H]2O)[C@H](O)[C@H](O)[C@H]1O -3.98%, CCCCCCCCCCCCCCCC(=O)OC[C@H](COP(=O)([O-])OCC[N+](C)(C)C)OC(=O)CCCCCCCCCCCCCCC -10.1%, O=c1c(CCc2ccccc2)nc2cnc(Oc3cccc(Cl)c3)nc2n1C[C@H]1CCCO1 14.5%, Cc1cc(C)cc(CN2CCOc3ccc(CN4CCC(O)(c5cccnc5)CC4)cc3C2)c1 21.5%, O=C(Nc1cccc(F)c1)N1CCC2(CC1)CCN(C(=O)c1csnn1)CC2 7.12%, C[C@]12C=CC(=O)C=C1CC[C@H]1[C@@H]3C[C@@H](O)[C@](O)(C(=O)CO)[C@@]3(C)C[C@H](O)[C@@]12F, COc1cc(/C=C/C(=O)N2CCCCC2=O)cc(OC)c1OC -13.6%, O=c1c(-c2ccc(F)c(F)c2)nc2cncnc2n1-c1ccccc1 9.73%, CC1(C)O[C@@H]2C[C@H]3[C@@H]4CCC5=CC(=O)CC[C@]5(C)[C@@]4(F)[C@@H](O)C[C@]3(C)[C@]2(C(=O)CCl)O1 10.9% [at 75.8 µM]
